# Data taken from the BET-seq Pho4 binding data (Le et al. 2018).
# This is one part of the list. The energies were worked out here from pooled read counts, against the library average; single values are noisy.
# Target: T1, Pho4 (S. cerevisiae) (UniProt P07270)
# T1 sequence: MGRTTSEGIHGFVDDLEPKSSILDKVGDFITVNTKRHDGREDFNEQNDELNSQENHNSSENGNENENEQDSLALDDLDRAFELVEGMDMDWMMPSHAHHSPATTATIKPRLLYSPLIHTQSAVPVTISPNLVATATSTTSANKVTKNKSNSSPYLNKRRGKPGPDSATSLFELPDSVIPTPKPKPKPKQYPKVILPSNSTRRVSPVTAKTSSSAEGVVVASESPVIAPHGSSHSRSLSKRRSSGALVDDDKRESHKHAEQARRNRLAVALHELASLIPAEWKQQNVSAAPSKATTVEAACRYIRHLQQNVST
# Assay: relative binding free energy (BET-seq); higher = weaker binding
# Settings: reference: library average
row,Sequence,relative binding free energy
1,CATTTCACGTGTTTCT,0.29 kcal/mol
2,GGCGTCACGTGAAGGT,0.38 kcal/mol
3,TGAGCCACGTGCGTTG,-0.1 kcal/mol
4,AGTCTCACGTGGGTGT,-0.08 kcal/mol
5,AGATGCACGTGCTGTG,-0.2 kcal/mol
6,TAGGGCACGTGTTGAA,0.01 kcal/mol
7,AGCGACACGTGGGAAG,-0.03 kcal/mol
8,CGTGGCACGTGGGGAG,-0.18 kcal/mol
9,TTCATCACGTGAAGTG,0.24 kcal/mol
10,TCATACACGTGGGTGT,-0.2 kcal/mol
11,GTACACACGTGGGTGT,-0.06 kcal/mol
12,TATTTCACGTGATTCT,0.35 kcal/mol
13,ATGAACACGTGTGGAT,0.16 kcal/mol
14,TAGGTCACGTGTTTGA,0.14 kcal/mol
15,TGGTCCACGTGCTATG,0.02 kcal/mol
16,TCGTACACGTGGTTGT,0.07 kcal/mol
17,GCGCTCACGTGTTTGT,0.31 kcal/mol
18,CGTGTCACGTGGGATT,0.16 kcal/mol
19,CGGATCACGTGGTGCT,0.2 kcal/mol
20,TCTTTCACGTGTTGAG,0.12 kcal/mol
21,GGATACACGTGGTATG,-0.06 kcal/mol
22,CGGGGCACGTGGGGCT,-0.2 kcal/mol
23,ATTTTCACGTGTATCA,0.05 kcal/mol

row,Sequence,relative binding free energy
1,AGGGGCACGTGGTTAC,-0.3 kcal/mol
2,TAAATCACGTGTTTAG,0.16 kcal/mol
3,TGTGTCACGTGGGTTC,-0.08 kcal/mol
4,TCGGTCACGTGCAGGG,0.09 kcal/mol
5,TGGGGCACGTGGGTAT,-0.27 kcal/mol
6,ATAATCACGTGTTGAG,0.12 kcal/mol
7,ATGTCCACGTGTAATG,0.13 kcal/mol
8,GCGTTCACGTGAGTAG,0.44 kcal/mol
9,TGTGACACGTGGGGAG,-0.09 kcal/mol
10,ATGGACACGTGATTCG,0.2 kcal/mol
11,AAATGCACGTGGATTA,-0.01 kcal/mol
12,GGATGCACGTGCATTG,0.03 kcal/mol
13,GAGTTCACGTGAGTTG,0.51 kcal/mol
14,ATCGTCACGTGCATGT,0.07 kcal/mol
15,AATAGCACGTGTTGTC,0 kcal/mol
16,TGTTACACGTGTGACA,0.18 kcal/mol
17,TAAGTCACGTGGATCT,0.08 kcal/mol
18,GTTCACACGTGGGTTG,0.06 kcal/mol
19,AGGGTCACGTGAATGA,0.36 kcal/mol
20,TTATTCACGTGATTAT,0.28 kcal/mol
21,TAGATCACGTGGGTTC,0.13 kcal/mol
22,CTAGTCACGTGGGGCG,-0.01 kcal/mol
23,CGGGACACGTGAGGTC,0.44 kcal/mol

row,Sequence,relative binding free energy
1,CTTGTCACGTGCTGTT,0.09 kcal/mol
2,GTAGCCACGTGCGGGT,-0.04 kcal/mol
3,ATTTTCACGTGGAGGT,0.24 kcal/mol
4,GAAGTCACGTGTGATT,0.21 kcal/mol
5,GTTTACACGTGGGTTA,0.12 kcal/mol
6,AGTGCCACGTGGTAGG,-0.17 kcal/mol
7,ACTTTCACGTGAGGTG,0.36 kcal/mol
8,GTGGTCACGTGGGTTC,0.06 kcal/mol
9,AGCCGCACGTGGGGCG,-0.26 kcal/mol
10,TGTATCACGTGTTACT,0.15 kcal/mol
11,AGAATCACGTGAGGGA,0.37 kcal/mol
12,GGGCACACGTGGCGTG,-0.09 kcal/mol
13,GTTGCCACGTGTGGCG,0.03 kcal/mol
14,GTTTACACGTGATTGC,0.21 kcal/mol
15,GGTAGCACGTGGGCGG,-0.28 kcal/mol
16,TAGCGCACGTGGTTGT,-0.11 kcal/mol
17,TGAATCACGTGGAGGG,0.15 kcal/mol
18,TCGTTCACGTGGTTAG,0.17 kcal/mol
19,GTATTCACGTGATTCG,0.38 kcal/mol
20,ACATTCACGTGTTGGG,0.19 kcal/mol
21,TGTGACACGTGTGGTC,-0.08 kcal/mol
22,GGGATCACGTGTTCTT,0.25 kcal/mol
23,TGGCCCACGTGTTGTA,0.05 kcal/mol

row,Sequence,relative binding free energy
1,TACTTCACGTGAGGGG,0.42 kcal/mol
2,AGTCTCACGTGGGGCA,0.04 kcal/mol
3,TTATGCACGTGTTACG,-0.16 kcal/mol
4,TAGGTCACGTGAGTTG,0.26 kcal/mol
5,TAGCGCACGTGTAAGG,-0.08 kcal/mol
6,CTTGCCACGTGGTCGG,-0.03 kcal/mol
7,TCTATCACGTGAGATG,0.5 kcal/mol
8,TAAGTCACGTGATTAG,0.14 kcal/mol
9,GTGAGCACGTGTCAGG,-0.16 kcal/mol
10,GGTATCACGTGGAGAT,0.29 kcal/mol
11,GTTGTCACGTGGGGCC,0.07 kcal/mol
12,TCAGGCACGTGTGGGT,-0.21 kcal/mol
13,TGAGGCACGTGGCGAG,-0.19 kcal/mol
14,GTCGGCACGTGGGCGT,-0.13 kcal/mol
15,CTTGCCACGTGCGGGG,-0.12 kcal/mol
16,GGGGTCACGTGGTTGC,0.18 kcal/mol
17,GTTCACACGTGTTTGT,0.04 kcal/mol
18,CGTTGCACGTGGGTTT,-0.11 kcal/mol
19,ACTTGCACGTGGGATG,-0.15 kcal/mol
20,TATGACACGTGTTGGA,0.01 kcal/mol
21,TCGGTCACGTGCATTG,0.15 kcal/mol
22,TATCTCACGTGTTATT,0.13 kcal/mol
23,GGCGCCACGTGGCAGG,-0.15 kcal/mol

row,Sequence,relative binding free energy
1,AGGAACACGTGCGTGG,-0.19 kcal/mol
2,AATGTCACGTGTGTGA,0.09 kcal/mol
3,ATAATCACGTGTGAAG,0.22 kcal/mol
4,TTGAGCACGTGAGCGG,0.13 kcal/mol
5,TATTGCACGTGGATGT,0 kcal/mol
6,CGTAGCACGTGCAGGT,-0.14 kcal/mol
7,TGCGCCACGTGGGGTA,-0.22 kcal/mol
8,AGGTTCACGTGAGATT,0.39 kcal/mol
9,CTATGCACGTGGGAGG,-0.19 kcal/mol
10,CATTGCACGTGCTGTG,0.04 kcal/mol
11,TTGGACACGTGAAGGA,0.39 kcal/mol
12,CGTACCACGTGTGTGT,-0.08 kcal/mol
13,ATCGGCACGTGGGGCG,-0.2 kcal/mol
14,TAGGGCACGTGGGTAG,-0.27 kcal/mol
15,TGGGGCACGTGGGGTT,-0.12 kcal/mol
16,TGAAGCACGTGGGAGT,-0.15 kcal/mol
17,CGCTACACGTGGGGGT,-0.04 kcal/mol
18,TATTACACGTGGTTGT,0.03 kcal/mol
19,TGTATCACGTGGTATC,0.08 kcal/mol
20,TTGATCACGTGGTCTA,0.2 kcal/mol
21,GTGTACACGTGATGTC,0.34 kcal/mol
22,GTATGCACGTGCGTGC,-0.07 kcal/mol
23,GTGAGCACGTGGGGGA,-0.2 kcal/mol
